The record followed here is the RNAGym collection of RNA variant scans (doi:10.7554/elife.90254).

Read counts are not given, so values of variants with three or more changes are uncertain.

Sequences and labels used below:
B1: OR4K15 (parent)
chain: GUUAACGGUCAUAGGCCAUGGAAACUAGGAGCACCAUUUCGCUGCCAGUGAAGAAAUGAACAAAGAAAAUCUGGGCCAGGCAGGCAUCAAAAGAAAUAGUCUUGCGCUCAACCAGAAAGUCUGUAAUCAUUUUAAGGGUA

In the data set the parent is B1. Put plainly: self-cleavage, relative activity (ratio to wild type); higher = more cleavage; in vitro, sequencing; the parent is a self-cleaving ribozyme.
As to GUUAACGGUCAUAGGCCAUGGAAACUAGGUGCACCAUUUCGCUGCCAGUGAAGAAAUGAACAAAGAAAGCCUGGGCCAGGCAGGCAUCAAAAGAAAUAGUCUGGCGCUCAACCAGAAAGUCGGUAGUCAUUUUAAGGGUA [A30U A69G U70C U103G U122G A126G], the self-cleavage worked out at 0.02.

With GUUAACGGUCAUAGGCCAUGGAAACUAGGUGCACCAUUUCGCUGCCAGUGAAGAAAUGAACAAAGAAAAUCUGGGCCAGGCUGGCAUCAAAGGAAAUAGUCCUGCGCUCAACCAGAGAGUCUGUAAUCAUUUUAAGGGUA [A30U A82U A92G U102C A117G], the self-cleavage was found to be 0.26.

For GUUAACGGUCAUAGGCCAUGGAAACUAGGUGCACCAUUUCGCUGCCAGUGAGGAAAUGAACAAAGAAAAUCUGGGCCAAGCAGGCAUCAAAAGAAAUAGUCUUGCGCUCAACCAGAAAGUCUGUAAUCAUUUUAAGGGUA [A30U A52G G79A], the self-cleavage stood at 0.14.

For GUUAACGGUCAUAGGCCAUGGAAACUAGGUGCCCCAUUUCGCUGCCAGUGAAGAAAUGAACAAAGAAGAUCUGGGCCAGGCAGGCAUCAAAAGAAAUAGUCUUGCGCUCAACCAGAAAGUCUGUAAUCAUUCUAAGGGUA [A30U A33C A68G U132C], the self-cleavage came to 0.72.

Regarding GUUAACGGUCAUAGGCCAUGGAAACUAGGGGCACCAUUUCGCUGCCAGUGAAGAAAUGAACAAAGAAAAUCUGGGCCAGGCAGGCACCAAAAGAAAUAGUCUUGCGCUCAACCAGAAAGUCUGUAAUCAUCUUAAGGGUA [A30G U87C U131C], the self-cleavage was 1.61.

GUUAACGGUCAUAGGCCAUGGAAACUAGGGGCACCAUUUCGCUGCCAGUGAAGAAAUGAACAAAGAAAAUCCGGGCCAGGCAGGCAUCAAGAGAAAUAGCCUCGCGCUCAACCAGAAAGUCUGUAAUCAUUCUAAGGGUA [A30G U72C A91G U100C U103C U132C]: the self-cleavage was 0.17.

Regarding GUUAACGGUCAUAGGCCAUGGAAACUAGGUGCACCAUUUCGCUGCCAGUGAAGAAAUGAACAAAGAGAAUCUGGGCCAGGCAGGCAUCAGAAGAAAUAGUCUUGCGCUCAACCAGAAAGUCUGUAAUCAUUUUAAGGGUA [A30U A67G A90G], the self-cleavage came out at 1.17.

For GUUAACGGUCAUAGGCCAUGGAAACUAGGGGCACCAUUUCGCUGCCAGUGAAGAAAUGAACAAAGAAAAUCUGGGCCAGGCAGGCAUCAAAAGAAAUAGUCUAGCGCUCAACCAGAAAGUCUGUAGUCAUUUUAAGGGCA [A30G U103A A126G U139C], the self-cleavage came out at 0.58.

In the case of GUUAACGGUCAUAGGCCAUGGAAACUAGGUGCACCAUUUCGCUGCCAGUGAAGAAAUGAACAGAGAAAAUCUGGGCCAGGCAGGCAUCAAAAGAAAUAGCCUUGCGCUCAACCAGAAAGUCUGUAAUCAUUUUAAGGGUA [A30U A63G U100C], the self-cleavage stood at 2.22.

Turning to GUUAACGGUCAUAGGCCAUGGAAACUAGGGGCACCAUUUCGCUGCCAGCGAAGAAAUGAACAAAGAAAAUCAGGGCCAGGCAGGCAACAAAAGAAAUAGUCUUGCGCUCAACCAGAAAGUCUGUAAUCAUUUUAAGGGUA [A30G U49C U72A U87A], the self-cleavage was determined as 0.2.

On to GUUAACGGUCAUAGGCCAUGGAAACUAGGGGCACCAUUUCGCAGCCAGUGAAGAAAUGAACAAAGAAAAUCUGGGCCAGGCAGGCAUCAAAAGAAAUAGCCUUUCGCUCAACCAGAAAGUCUGUAAUCAUUUCAAGGGUA [A30G U43A U100C G104U U133C], for which the self-cleavage came to 0.01.

Turning to GUUAACGGUCAUAGGCCAUGGAAACUAGGGGCACCAUUUCGCUGCCAGCGAAGAAAUGAACAAGGAAAAUCUGGGCCAGGCAGGCACCAAAAGAAACGGUCUUGCGCACAUCCAGAAAGUCUGUAAUCAUUUUAGGGGUA [A30G U49C A64G U87C U97C A98G U108A A111U A135G], the self-cleavage came to 0.

For GUUAACGGUCAUAGGCCAUGGAAACUAGGGGCACCAUUUCGCCGCCAGUGAAGAAAUGAACAAAGGAAAUCUGGGCCAGGCAGGCAUCAUAAGAGAUAGUCUUGCGCUCAACCAGAAAGUCUGUAAGCAUUUUAAGGGUA [A30G U43C A66G A90U A95G U127G], the self-cleavage stood at 1.8.

Take GUUAACGGUCAUAGGCCAUGGAAACUAGGGGCACCAUUUCGCAGCCAGUGAAGGAAUGAACAAAGAAAAUCUGGGCCAGGCAGGCAUCAAAAGAAAUAGUCUUGCGCUCAACCAGAAAGUCUGUAAUCAUUUUAAGGGUA [A30G U43A A54G]: the self-cleavage was determined as 0.59.

Regarding GUUAACGGUCAUAGGCCAUGGAAACUAGGGGCACCAUUUCGCUGCCAGUGAAGAAAUGAACAAAGAAAAUCUGGGCCAGGCAGGCACCAAAAGAAAUAGUCUUGCGCACAACCAGAAAGUCUGUAAUCAUUUUAAGGGUA [A30G U87C U108A], the self-cleavage came to 0.02.

Turning to GUUAACGGUCAUAGGCCAUGGAAACUAGGGGCACCAUUUCGCUGCCAGUGAAGAAAUGAACAAAGAAAAUCCGGGCCAGGCAGGCAUCAAAAGAAAUAGUCUUGCGCCCAACCAGAAAGUCUGUAAUCAUUUUAAGGGUA [A30G U72C U108C], the self-cleavage was 0.03.

As to GUUAACGGUCAUAGGCCAUGGAAACUAGGGGCACCAUUUCGCUGCCAGCCAAGAAAUGAACAAAGAAAAUCUGGGCCAGGCAGGCAUCAAAAGAAAUAGUCUUGCGCUCAACCAGAAAGUCUGUAAUCAUUUUAAGGGUA [A30G U49C G50C], the self-cleavage came out at 0.36.

GUUAACGGUCAUAGGCCAUGGAAACUAGGUGCACCAUUUCGCUGCCAGUGAAGAAAUGAACAAUGAAAGUCUGGGCCAGGCAGGCAUCAAAAGAAAUAGUCUUGCGCUCAACCAGAAAGUCCGUAAUCAUUUUAAGGGUA [A30U A64U A69G U122C]: the self-cleavage came out at 0.5.

For GUUAACGGUCAUAGGCCAUGGAAACUAGGUGCACCAUUUCGCUGCCAGUGAAGAAAUGAACAAAGAAGAUCUGGGCCUGGCAGGCAUCAAAAGAAAUAGUCUUGCGCUCAACCAGAAAGUCUGUAACCAUUUUAAGGGUA [A30U A68G A78U U127C], the self-cleavage stood at 0.19.

With GUUAACGGUCAUAGGCCAUGGAAACUAGGUGCACCAUUUCGCUGCCAGUGAAGAAAUGAACAAAGAAAAUCUGGGCCAGGCAGGCAUCAGAGGAAAUAGUCUUGCGCUCAACCAGAAAGCCUGUAGUCAUUUUAAGGGUA [A30U A90G A92G U120C A126G], the self-cleavage was determined as 0.25.

Take GUUAACGGUCAUAGGCCAUGGAAACUAGGUGCACCAUUUCGCUGCCAGUGAAGAAAUGAACAAAGAAAAUCUGGGCCAGGCAGGCAUCAAAAGAGAUAGUCUUGCGCUCAACCAGAGAGUCUGUAAUCAUUUUAAGGGUA [A30U A95G A117G]: the self-cleavage turned out to be 2.35.
